± gives the standard deviation of the averaged measurements. The list shows a part of the results.
The sequences below were run on PfAP2-I AP2 domain 3 (GST-tagged) (assay: gcPBM binding intensity (ln(normalized median fluorescence intensity)); higher = stronger DNA binding).
Summary of the method: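 An Agilent 4 × 180k array of primer-extended double-stranded 36-bp intergenic genomic probes, with negative controls, was incubated for 1 h with GST-tagged P. falciparum DNA-binding domains expressed in E. coli. Alexa488 anti-GST antibody detected bound protein, scanned at 488 nm. Binding intensity is the highest Masliner-normalised natural-log median intensity across replicate spots of either probe orientation.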

Row | Sequence | gcPBM binding intensity (ln)
1 | TTAAATAATATTAAATGTACATATTATTATGATATA [XGTACX_site6189] | 7.58 ± 0.23
2 | AGGAGACTTAAAAAAAGTACAAAAAAAAAAAAAAGC [XGTACX_site1576] | 8.15 ± 0.54
3 | ACAGAAAAAAAACACACACACATAATATACATACAT [CACACA_site1932] | 7.97 ± 0.51
4 | TATACATATATAAATGCATGTTGATATTAATAGTTA [TGCATGCA_site639] | 7.75 ± 0.57
5 | ATTTAGAAAAATAAAACACACATATAGATGTAAATA [CACACA_site7853] | 7.5 ± 0.63
6 | ATATTTCTGTCAAGCACACATAATATTAAAATATGT [CACACA_site4330] | 7.91 ± 0.49
7 | ATGTTTGTCTATAGCTGTACCTATTTATAAAACGTA [XGTACX_site7157] | 8.04 ± 0.49
8 | TCATATTATAATGTGAGTACATATAATAAATAAGTT [XGTACX_site2470] | 7.74 ± 0.27
9 | TTAATATGATATATATATATATATATATATATATAT [CACACA_negctrl_site683] | 9.1 ± 0.62
10 | GTAAAAATTTTAAATACATGCAAGCGATTAATATGA [TGCATGCA_site80] | 7.75 ± 0.79
11 | ACCTCATAATATTTAACACACAAAATTAAATGTATG [CACACA_site6898] | 8 ± 0.31
12 | TTTCAAAAAAATAATGTGCACATTAGAAAATAAATA [GTGCAC_site9416] | 9.59 ± 0.29
13 | TTTTATACATATTTTACACACTAAAATATACATATA [CACACA_site324] | 8.05 ± 0.54
14 | GAAGTATTTATTTATGCATGCAAATATACAAAAAAA [TGCATGCA_site975] | 8.32 ± 0.77
15 | ACATATATTTAAAAATGTACTTACATATATTTTTTA [XGTACX_site6050] | 7.55 ± 0.45
16 | ATAAAATAAATATTTTGTTATTTATTTAATCTAATA [XGTACX_negctrl_site404] | 7.2 ± 0.38
17 | TAAATATTTTTAGATGCATGCAATAATTACCCAAAG [TGCATGCA_site636] | 8.15 ± 0.78
18 | TTATTATTATTACTAGTGCATTAATTATATATGTAA | 11.6 ± 0.49
19 | TTTTTTTTTTCTGAAAGTACTAATTTCCTGGAGGAA [XGTACX_site759] | 7.64 ± 0.65
20 | TTATGTTGTAAATGCACACATACATAAACTCAGTTT [CACACA_site5639] | 9.92 ± 0.44
21 | AAAAATAAAATAAAGAAGGAAAATAAAAAAATAAGG [CACACA_negctrl_site1811] | 7.84 ± 0.57
22 | AGGAGGTCAGTTCACAGTACCCAGGAAATCTACGGA [XGTACX_site2552] | 7.7 ± 0.52

Row | Sequence | gcPBM binding intensity (ln)
23 | AAACATAAGAGACACACACACATATATAAATAAATA [CACACA_site7674] | 7.75 ± 0.4
24 | AATTTCATAAATATAACTGAGAATAAATAAACAAAG [GTGCAC_negctrl_site146] | 7.85 ± 0.44
25 | CCTGTAAATAAATATAAATACATATTTCTAATATAT [GTGCAC_negctrl_site21] | 7.51 ± 0.43
26 | ATATAAAAATGTGTATGTACACACTTTATTTTTAAT [XGTACX_site5272] | 7.8 ± 0.3
27 | AAATTACAAATACAAACACACAAATGTTTTTCATTC [CACACA_site3552] | 7.43 ± 0.59
28 | TTTTTCTATAAAAAATGTACATATTTTATGAAGGAA [XGTACX_site821] | 7.96 ± 0.5
29 | TTAAAAAACCTTAGATGTACAGTTATATATAAAATA [XGTACX_site6688] | 7.75 ± 0.45
30 | ATCCTTTATTTTTTTTGTACATAAAAATAACTCGAG [XGTACX_site3885] | 8.2 ± 0.43
31 | TGAACACACGAGCACACACACACATCTATATTTATA [CACACA_site6607] | 8.15 ± 0.49
32 | TGGAATAATACGCGTACACACATATATATATTAATA [CACACA_site131] | 8.14 ± 0.4
33 | AGGTATCAAAAATATGCATGCAATATTTTATGTAAT [TGCATGCA_site1055] | 8 ± 0.86
34 | AAAAAAAAATTAATATATAAAAGGATATATATATAT [GTGCAC_negctrl_site449] | 9.08 ± 0.21
35 | GAATAATATATATATTGTACTTTTTATTTATATTAT [XGTACX_site3180] | 7.8 ± 0.36
36 | AAAATATAATATAATGCACACATAAAACAAAAAAAA [CACACA_site8989] | 10.7 ± 0.67
37 | CTTTTTTTTTTTTTTACACACCCAAATCACATACAT [CACACA_site4051] | 8.45 ± 0.28
38 | ATATATATATTTATATGTACGAAATATAAAAAAAAA [XGTACX_site5054] | 8.59 ± 0.47
39 | ACATATAAATATATTACACACACACTAAAAAAATAA [CACACA_site6209] | 7.95 ± 0.3
40 | CACCTTATAAATACTGCACACATAAAATATATATTA [CACACA_site8908] | 10.2 ± 0.49
41 | CTTATCAAAAAAAAAGCATGCCACAGGCAAAAGGTA [TGCATGCA_site574] | 7.76 ± 0.88
42 | ATATATATATATATATGTACATATATACATATACAT [XGTACX_site2350] | 9.3 ± 0.55
43 | AAGAAAAACTTTACGTGTACCAAACATCCTGCCAAC [XGTACX_site598] | 8.14 ± 0.42
44 | AGTGATACTAATTTTTGTACGCATAAAAGAATATTC [XGTACX_site6055] | 8.1 ± 0.32

Reference: the supplement of paper PMC11417369
